According to ChEMBL document CHEMBL4888484, “Replenishing the malaria drug discovery pipeline: Screening and hit evaluation of the MMV Hit Generation Library 1 (HGL1) against asexual blood stage Plasmodium falciparum ,using a nano luciferase reporter read-out” (2022):
The campaign covered roughly 150,000 compounds. About 540 (0.36%) showed an effect of 50% or more. The list shows a part of the results.

Tested on: Plasmodium falciparum
Assay: Primary screen in NF54 nanoGlo assay, in single point, at 2uM, 72h; a lower Z score goes with more inhibition
Format: functional, Erythrocyte
Settings: timepoint 72 hour

Row | Compound | % Inhibition [%] | Z score
1 | N#Cc1cc(CN2CC[C@H](NC(=O)c3ccccn3)[C@@H](O)C2)c[nH]1 | -7 | 0.9
2 | Cc1cc2cc[nH]c2cc1N1C(=O)[C@H](C)N(C2CC2)C1=O | -20 | 3.78
3 | COC1(C(F)(F)F)CN(C(=O)Nc2ccnc(CN(C)C)c2)C1 | -5 | 0.85
4 | COCC[C@H]1CCCN(Cc2nonc2C)C1 | -8 | 0.91
5 | CC[C@H](C)[C@H](NC(=O)c1cccnc1)c1nc2ccccc2[nH]1 | -9 | 1.06
6 | CCS(=O)(=O)NCCS(=O)(=O)N(C)[C@H]1CCc2ccccc21 | 2 | -0.27
7 | O=C(NC(Cc1ccncc1)[C@H]1C[C@H](O)C1)c1ccnnc1 (stereo partly drawn) | -5 | 0.93
8 | CN(C)c1ncn(-c2cccc(NC(=O)NC3CCCCC3C(N)=O)c2)n1 (stereo not drawn) | -5 | 0.93
9 | CN1C(=O)C(C)(C)N(C(=O)C23CC(C2)C3)c2ccccc21 | -18 | 2.61
10 | O=C(NS(=O)(=O)Cc1ccc2c(c1)COC2)C1CC2CCC1C2 (stereo not drawn) | 5 | -0.6
11 | COc1ccnc(CN(C)Cc2nc(C)cs2)c1 | 7 | -1.3
12 | CCc1ccc(CNC(=O)[C@H]2CCc3nc(N4CCN(C(C)=O)CC4)sc3C2)cc1 | -4 | 0.82
13 | CCc1ncnc(O[C@H]2CCN(C(=O)c3ccccn3)C2)c1F | -3 | 0.46
14 | Cc1cnc(C(=O)Nc2ccc3c(c2)OCCO3)cn1 | -15 | 1.87
15 | O=C(Nc1ccccc1Cl)c1ccc2nc(N3C(=O)CCC3=O)sc2c1 | -7 | 1
16 | CCNC(=O)N(C1CC1)[C@H]1CCOC2(CCN(C(=O)c3ccnn3C)CC2)C1 | 5 | -0.77
17 | O=C(N1CCCC1)C1(F)CCN(Cc2ccccn2)CC1 | -6 | 0.74
18 | CCCN(CC#N)C(=O)C(C)(C)c1cccs1 | -1 | 0.12
19 | COCCCC(=O)Nc1cc(C)c(Br)cn1 | 34 | -4.97
20 | N#Cc1ccccc1C(=O)N1CCC2(CC1)[C@H](O)C[C@@H]2OCCO | -10 | 1.96
21 | COc1ccc(OC)c(NC(N)=NCCc2cccc(O)c2)c1 | 0 | 0.05

Row | Compound | % Inhibition [%] | Z score
22 | NS(=O)(=O)c1cnn(-c2ccc(NCc3ccccc3)cn2)c1 | -10 | 1.39
23 | O=C(Nc1ccc(F)cc1F)[C@H]1CCCN(S(=O)(=O)Cc2ccc(Cl)cc2)C1 | -3 | 0.58
24 | Cc1cccc(N(C)C(=O)CCn2nnc3ccccc3c2=O)c1C | -13 | 1.51
25 | CCc1cc(N(CCO)C2CCCC2)n2ncnc2n1 | -6 | 0.85
26 | COc1ccc(-c2cn3ccc4cc(OC)c(OC)cc4c3c2-c2ccc(OC)c(OC)c2)cc1 | 2 | -0.28
27 | Cc1ccccc1C(=O)N1[C@H](C(=O)NCc2cccnc2)COC12CCN(C(=O)c1ccccc1Cl)CC2 | -10 | 0.94
28 | Cc1cc(NC(=O)[C@@H]2CC=CCC2)no1 | -8 | 0.71
29 | Cn1cc(C(=O)NCCCN2CCCC2=O)c2cccnc21 | 0 | -0.04
30 | CCOC(=O)c1nn(Cc2ccc(OC)cc2)c2c1CN(C(=O)[C@@H]1CCCO1)CC2 | -8 | 1.05
31 | COCCOC(=O)N1CCC(c2nnc(CN3CCOCC3)n2C)CC1 | 7 | -1.01
32 | CN(Cc1ccsc1)C(=O)CC[C@]1(Cc2ccc(F)cc2)CCC(=O)N1 | -8 | 1.41
33 | CCc1nsc(N[C@@H](C)c2ccc(NC(=O)NC3CC3)cc2)n1 | -6 | 0.65
34 | CCc1ccccc1NC(=O)N1CCN(Cc2nc3ccc(Cl)cc3o2)CC1 | -30 | 2.64
35 | Nc1nnc(CCNC(=O)c2cscc2C(F)(F)F)o1 | -7 | 0.67
36 | CCC(C)(C)OC1CN(C(=O)c2cc3cccc(F)c3o2)C1 | 29 | -3.93
37 | O=C(Cc1csc(NC(=O)c2ccco2)n1)N[C@H]1CCC[C@H]1Oc1cc(F)cc(F)c1 | -17 | 2.15
38 | COc1ccc(C(=O)N2CC3(C[C@@H](c4noc(-c5ccccn5)n4)N(C)C3)C2)cn1 | -10 | 1.61
39 | CCCOc1ccc(CN2C[C@@H](CO)[C@H](c3ccncc3)C2)cc1 | -9 | 1.48
40 | CCCN1CCN(CCCNS(=O)(=O)c2ccc3c(c2)C(C)(C)C(=O)N3C)CC1 | -6 | 0.79
41 | CC(C)CN1C[C@H](OCc2ccccc2F)CN(C(=O)C(C)(C)O)CC1=O | -17 | 1.93
42 | CN1CC(=O)N2C[C@@H](n3ccnc3-c3ccc(-c4cc[nH]n4)s3)C[C@H]2C1=O | -11 | 1.27

Row | Compound | % Inhibition [%] | Z score
43 | O=C1C[C@H](c2nc(CCCc3ccccc3)no2)CN1CC1CC1 | -12 | 1.59
44 | Cn1c(C(=O)Nc2ccccc2C(N)=O)ccc1-c1ccccc1Br | -3 | 0.26
45 | CCOc1ccc(-c2cn(C3CN(C(=O)c4cc(C)no4)C3)nn2)cc1 | -9 | 1.33
46 | O=C(Cn1ccc2occc2c1=O)N[C@H](c1ccc(F)cc1)C1CCCC1 | -2 | 0.3
47 | CC(C)n1nnc2cc(S(=O)(=O)N(C)CC(=O)NCCCN3CCCC[C@@H]3C)ccc21 | -14 | 2.26
48 | C[C@H]1CN(C(=O)c2ccc(CN3CCc4ccccc4C3)cc2)CCCO1 | 2 | -0.3
49 | Cc1cc(C(=O)N[C@H](CO)C(C)C)c(F)cc1F | -17 | 1.53
50 | CCn1c(C)c(CN2CCC(C(=O)NC3CCCC3)CC2)c2ccccc21 | -10 | 1.36
51 | Cc1nn2c(-c3ccc(-c4ccccc4)cc3)ccnc2c1Cl | -12 | 1.64
52 | COc1cccc(C(=O)N2[C@H](C(=O)NC3CCN(C)CC3)COC23CCC(C)CC3)c1 (stereo partly drawn) | -6 | 0.81
53 | CCn1nc(C)c(CCn2ccnc2-c2ccc(CO)o2)c1C | -6 | 1.06
54 | CN(C)c1nc(C2CC(N)C2)cc(N(C)Cc2ccc3c(c2)OCO3)n1 (stereo not drawn) | 0 | 0.03
55 | C[C@@]1(C(=O)NCc2nnnn2CC2CC2)CCCNC1=O | 31 | -3.53
56 | CC(C)CCOc1ccc(CN2CC(C(=O)O)C2)cc1 | -17 | 1.97
57 | C[C@H]1c2cc(Cl)cc(Cl)c2CCN1c1nccc(-n2cccn2)n1 | -19 | 2.45
58 | CC[C@H]1C(=O)Nc2sc(C)c(C)c2C(=O)N1C | -3 | 0.41
59 | COc1ccc(NS(=O)(=O)N2CCc3ccccc3C2)cn1 | -2 | 0.22
60 | COc1cc(F)c(CN2CCC3(CC2)CNC(=O)C3)cc1OC | -34 | 7.24
61 | CCc1ncsc1NS(=O)(=O)c1cnc(-c2ccccc2)nc1 | -11 | 1.08
62 | CCS(=O)(=O)N1CC(=O)N(c2ccc(OC)cc2OC)[C@](C)(C(=O)NC2CCCC2)C1 | -7 | 0.91
63 | Cc1ccc(CN2C[C@@H](CO)[C@H](NC(=O)C3CCC3)C2)o1 | -6 | 0.86

Row | Compound | % Inhibition [%] | Z score
64 | CCc1cccnc1NC(=O)[C@@H](OC)C(C)C | 4 | -0.56
65 | CC(C)[C@@H](O)Cc1nc(-c2ccc(Br)o2)no1 | -7 | 0.59
66 | CCC1CN(CCn2cccn2)C(CC)CN1CCn1cccn1 (stereo not drawn) | -9 | 0.95
67 | Cc1occc1C(=O)N[C@H]1CCCCNC1=O | 10 | -1.35
68 | CCN1CCN(C(=O)CCc2ccc(-c3ccc(C)cc3C)n2-c2ccc(CC#N)cc2)CC1 | -11 | 1.12
69 | COc1cccc(C[C@H](C)NC(=O)c2nc(=O)[nH][nH]2)c1 | 3 | -0.35
70 | CCN(C(C)=O)c1nc(CN2CC(n3cc(C)cn3)C2)cs1 | -1 | 0.16
71 | Cc1cc(Cl)ccc1Nc1nc(=O)[nH]nc1C | -6 | 0.87
72 | CCS(=O)(=O)N(C)CC(=O)N1CCN(C)c2ccc(Cl)cc21 | -10 | 1.47
73 | COc1cc(C)nc(N(C)Cc2csnc2OC)n1 | 5 | -0.75
74 | Cc1cc(C(=O)N2CCCc3ccc(C)c(Br)c32)ncn1 | -2 | 0.29
75 | Cc1ccc(NC(=O)N2CCN(c3nccc(C(C)C)n3)CC2)c(C)n1 | -6 | 0.88
76 | N#Cc1cccnc1NCCc1nc2c(s1)COCC2 | -13 | 2.45
77 | CCN1CC[C@@]2(CCC1=O)CN(C1Cc3ccccc3C1)CCN2C | 4 | -0.52
78 | CCOc1ccc(N2C[C@@H](C(=O)N3CCN(C)CC3)CC2=O)cc1 | 1 | -0.17
79 | C=CCOc1ccc(CNc2cnn(CC(=O)N3CC(C)OC(C)C3)c2)cc1Cl (stereo not drawn) | -3 | 0.62
80 | CN(Cc1ccccc1)C(=O)N1CCC[C@H](n2ccnn2)CC1 | -6 | 0.89
81 | COc1ccc(CC(=O)N2CCOC[C@H](Oc3cccnc3)C2)cc1 | -11 | 1.41
82 | O=S(=O)(Nc1ccc(F)cc1Cl)c1ccc(-c2cnc(C3CC3)o2)cc1 | -6 | 1.14
83 | O=C(Cc1ccc(-n2cnnc2)cc1)N1CC[C@H]1C1CC1 | 12 | -1.51
84 | O=C(Nc1cc(S(=O)(=O)N2CCOCC2)ccc1N1CCOCC1)[C@@H]1COc2ccccc2O1 | -7 | 1.05
